Experimental data as given in the supplement of paper PMC7335073.
The full ranking holds about 4,100 sequences; the median of “relative CpG methylation activity (normalised to average over all NNNCGNNN flanks)” is about 0.87, and the highest 2% start at about 2.4. This is one part of the list.

What follows are sequences tested against DNMT3A catalytic domain (mouse) (UniProt O88508) (assay: relative CpG methylation activity (normalised to average over all NNNCGNNN flanks) (relative (1 = mean)); higher = more methylation of the central CpG). Details: system: in vitro, murine catalytic domain; CpG state: hemimethylated substrate pool; residues: 608-908.
Experimental: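 Deep enzymology: a pool of dsDNA substrates with a central CpG flanked by 10 random nucleotides on each side was methylated by the murine DNMT3A or DNMT3B catalytic domain (0.8 mM SAM, 37 °C, 60 min). Methylation was then read out by hairpin ligation, bisulfite conversion and NGS. Values are the average methylation of each NNNCGNNN context (±3 flanks; the outer flanks are random and averaged over), normalised to the overall mean, so 1 = average activity.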

Sequence | relative CpG methylation activity
GAGCGTCT | 1.09
AATCGTTG | 0.24
AGCCGACC | 1.1
ATGCGATG | 0.851
CGCCGCAC | 0.823
CGTCGCCT | 2.06
GTACGGGC | 1.82
TTACGTTC | 2.04
AACCGGTC | 1
TAACGTAG | 0.514
CTGCGTTC | 1.5
AGACGATC | 0.959
ATGCGTCC | 1.99
GGGCGTTG | 0.405
GGACGCAA | 0.614
GAGCGATT | 0.528
CTCCGTCG | 1.92
CCCCGGGA | 0.853
CACCGACT | 0.89
CCTCGTCC | 2.31
CCTCGCAG | 0.442
GGACGTGC | 0.431

Sequence | relative CpG methylation activity
TACCGAGT | 1.08
CGCCGCTA | 0.842
GGACGGAC | 0.861
TGTCGAAG | 0.216
TTACGTCT | 2.14
GCCCGGAT | 0.551
CCACGACT | 1.02
TCCCGATG | 0.609
CCGCGGGC | 0.748
GTCCGCAC | 2.12
AGGCGTAG | 0.22
GCCCGTGC | 0.536
CCCCGCAA | 0.957
CTCCGTGT | 0.649
GGGCGATT | 0.735
TCTCGAAA | 1.12
TTGCGGAT | 1.07
AGTCGCGG | 0.0617
AACCGCAC | 1.1
CACCGAGA | 1.08
CCACGAAT | 1.16
AAGCGGGA | 0.31

Sequence | relative CpG methylation activity
CCTCGGTG | 0.402
ACCCGCAT | 1.25
GCCCGCCA | 1.52
CCTCGCCC | 2.6
GGCCGCCT | 1.37
ACCCGTCA | 1.83
GGGCGACC | 0.449
CGCCGGTG | 0.806
TCACGCTT | 2.19
AGGCGCTG | 1.08
CGGCGCTG | 0.699
GGTCGTTT | 0.435
GCCCGTCA | 1.74
CAGCGCGC | 0.345
TCGCGACT | 0.906
TGACGTGT | 0.174
TTGCGACA | 1.26
CCCCGTCC | 1.92
GGCCGCTA | 0.66
GGTCGTCC | 0.756
TCTCGCAC | 1.41
CGACGAAA | 0.566

Sequence | relative CpG methylation activity
GGGCGCGT | 0.603
ACCCGGTG | 0.688
GAGCGAGT | 0.872
ACGCGGAA | 1.12
CTTCGTGG | 0.1
CACCGGCA | 0.708
CTGCGTCA | 1.83
GCACGCGC | 1.41
AGGCGGAC | 1.06
GGTCGGTT | 0.189
ACCCGATC | 1.87
GATCGACT | 0.213
AGTCGCAC | 0.68
AGCCGCCC | 1.75
CTCCGGGT | 0.933
TCACGGAT | 1.51
CCTCGAAG | 0.497
CAGCGCTA | 0.801
GCGCGCGC | 0.794
ACCCGGCC | 1.27
GGGCGACT | 1.14
CTGCGGAT | 0.814

Sequence | relative CpG methylation activity
CATCGTAG | 0.475
TCCCGAGA | 1.02
GGACGTTG | 0.114
AGTCGGCT | 0.284
GCACGTCG | 1.84
CAACGCAG | 0.487
AACCGACC | 1.25
GGGCGCCC | 1.52
CGTCGGAG | 0.128
GAACGTGA | 0.396
GTCCGTAT | 0.84
CGTCGATG | 0.299
GAACGCCT | 1.72
CCTCGTAC | 1.23
AGACGCCT | 1.38
TACCGATG | 0.497
AACCGCCG | 1.43
CGCCGTTC | 1.07
CATCGTAA | 0.865
AACCGTTA | 0.79
GTGCGCAG | 0.784
